# Laboratory results: PubChem BioAssay AID1508642 (National Center for Advancing Translational Sciences (NCATS), 2021)
# About 200 (0.47%) of roughly 43,000 compounds were called active. Another 12% or so got no clear call; they are omitted. The call rests on the fitted dose curve; in most records, active means well fitted cell-killing curve with a large enough effect; inconclusive means small, poorly fitted or top-dose-only effect, or effect the other way; inactive means flat fitted curve, though single readings scatter. Some of the results follow.
# Assay: Cell viability qHTS assay in S16 Pmp22-F2sN cells; further: nearly all actives have a fitted effect of over 65% in size
# Conditions: S16 Pmp22-F2sN Schwann cells (luciferase reporters placed in the Pmp22 gene) viability, CellTiter-Glo, 24 h; series mostly up to 57.5 µM; activity change, negative = cytotoxicity: at the top concentration
# Outline: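 Seed 500-1,000 S16 Pmp22-F2sN cells per well in phenol-red-free DMEM with 10% heat-inactivated FBS; pin-add 23 nL compound; incubate 24 h at 37C; add CellTiter-Glo, wait 15 min protected from light; read luminescence.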
# On the % scale 0 is the no-effect control and ±100 the full control effect.
row,Compound,"activity change, negative = cytotoxicity"
1,COc1ccc(CCNc2ncnc3c2cnn3-c2ccc(C)cc2)cc1,inactive: 22%
2,Fc1ccc(CN2CCc3nc(Nc4ccccc4)ncc3C2)cc1F,inactive: -2.6%
3,COc1ccc(CCNC(=O)c2ccc3c(c2)N(Cc2ccccc2F)C(=O)c2ccccc2S3(=O)=O)cc1OC,inactive: -5.58%
4,Cc1ccc(CN(Cc2ccco2)C(=O)COc2cc(C)c(Cl)c(C)c2)cc1,inactive: -25.7%
5,O=c1c2c(-c3ccccc3)ccnc2[nH]n1-c1ccccc1,inactive: 4.57%
6,CCCC1=Nc2cc(C(=O)NC(C)c3ccccc3)ccc2Sc2ccc(C)cc21 (configuration not stated),inactive: -18%
7,Cc1nn(C(=O)c2c(F)cccc2F)c(C)c1S(=O)(=O)N1CCOCC1,inactive: 0.302%
8,O=C(CCN1N=C(c2ccccc2)CCC1=O)NCCc1ccc(Cl)cc1,inactive: 9.7%
9,Cc1cc(C(F)F)n2nc(C(=O)Nc3c(C)cccc3C)nc2n1,inactive: 6.39%
10,Cc1cccc(N2CCN(C(=O)c3cc4c(=O)oc5ccccc5c4s3)CC2)c1C,inactive: 0.614%
11,CCCCn1c(SCC(=O)NCCCOC)nc2c(sc3ccccc32)c1=O,inactive: -2.01%
12,CCn1c(=O)c2sccc2n2c(CCCC(=O)N3CCN(c4cc(Cl)ccc4C)CC3)nnc12,inactive: 13.2%
13,Cc1cc(C)c(NC(=O)CSc2nc3nc(C)cc(C)n3n2)c(C)c1,inactive: -1.21%
14,Cc1cc(C)c(NC(=O)CSc2ccc(-c3sc(-c4ccccc4)nc3C)nn2)c(C)c1,inactive: 14%
15,COc1ccccc1N1CCN(c2ncccc2-c2nc(-c3ccc(Cl)cc3)no2)CC1,inactive: 16.2%
16,CCCCOc1cccc(C2c3c(oc4ccccc4c3=O)C(=O)N2c2ccccn2)c1 (configuration not stated),inactive: -15.6%
17,CCc1ccc(C(=O)c2cn(CC(=O)Nc3ccc(OC)c(OC)c3)c3ccc(C)cc3c2=O)cc1,inactive: 16.9%
18,O=C(CSc1nc(-c2ccc(F)cc2)[nH]c1-c1ccccc1)NCC1CCCO1 (configuration not stated),inactive: -15.2%
19,CCOC(=O)c1c(-c2ccc(C)cc2)csc1NC(=O)c1nc(SCC)ncc1Cl,inactive: 1.41%
20,Cc1ccc(-n2c(=O)c3ccc(C(=O)NCc4ccccc4Cl)cc3n(Cc3ccccc3F)c2=O)cc1,inactive: -4.19%
21,COc1cccc(NS(=O)(=O)c2ccc3[nH]cc(C(=O)N4CCCCCC4)c(=O)c3c2)c1,inactive: 2.4%
22,O=C(NC1CC(=O)N(c2cccc(F)c2)C1)C1CC1 (configuration not stated),inactive: 11.2%
23,Cc1ccc(NC(=O)c2oc3ccccc3c2NC(=O)c2ccccc2C)cc1,inactive: 3.61%
24,COc1ccc(Cn2c(=O)c3cccnc3n(Cc3cccc(OC)c3)c2=O)cc1,inactive: 3.12%
25,CSc1nnc(NC(=O)Cc2coc3cc(C)ccc23)s1,inactive: 20%

row,Compound,"activity change, negative = cytotoxicity"
1,Nc1cccc(-c2cn3ccsc3n2)c1,inactive: 1.67%
2,COc1cc(/C=C(\C#N)c2nc3ccccc3n2C)cc(OC)c1OC,inactive: -18.9%
3,Cc1ccc(NC(=O)c2cc(S(=O)(=O)N3CCCC(C)C3)cn2C)c(Br)c1 (configuration not stated),inactive: 15.4%
4,O=c1c2cc3c(cc2nc2sc(Nc4ccc(F)c(Cl)c4)nn12)OCO3,inactive: 17.8%
5,COc1cc(OC)c(N(C)C(=O)Cn2ncc3c([nH]c4ccccc43)c2=O)cc1Cl,inactive: -1.73%
6,CCN1CCN(c2oc(/C=C/c3ccccc3OC)nc2C#N)CC1,inactive: 6.11%
7,Cn1c(=O)c2c(-c3cccc(Br)c3)n(CCO)cc2n(C)c1=O,inactive: 0.848%
8,Cc1cccc(OCC(=O)OCc2cc(=O)n3nc(C4CCCCC4)sc3n2)c1,inactive: 25.2%
9,COc1ccc(C(=O)COC(=O)c2cccc(NC(=O)c3ccc(OC)c(OC)c3)c2)cc1,inactive: -3.75%
10,CCOC(=O)C(CC)n1nc(C)n2c(cc3occc32)c1=O (configuration not stated),inactive: 13.8%
11,Cc1ccc(S(=O)(=O)NCC(c2ccc(N(C)C)cc2)N2CCOCC2)cc1 (configuration not stated),inactive: 0.308%
12,O=C(NC1CCCCCC1)C1CCN(C(=O)N2CCOc3ccccc32)CC1,inactive: 0.232%
13,COc1ccc(C(=O)c2cn(Cc3ccc(F)cc3)c3ccc(C)cc3c2=O)cc1,inactive: -0.194%
14,Cc1ccc(-c2nc3ccccn3c2Nc2ccc3c(c2)OCO3)cc1,inactive: -4.91%
15,CCOC(=O)c1c(NC(=O)c2ccccc2Cl)sc2c1CCCC2,inactive: -6.58%
16,COCCNC(=O)c1c(C)oc2nc(C)nc(N3CCOCC3)c12,inactive: 2.08%
17,Cc1ccc2c(c1)NC(c1cccnc1)=NC(c1ccc(F)cc1)=N2,inactive: 3.04%
18,Cc1ccc(-c2nnc(SCc3ccccc3C#N)o2)cc1,inactive: 1.9%
19,COc1cccc(-c2nc(CS(=O)(=O)CC(=O)NCc3ccc(C)cc3)c(C)o2)c1,inactive: -14.5%
20,Cc1ccc(CN2C(=O)C(O)(c3c[nH]c4ccccc34)c3cc(Cl)ccc32)cc1 (configuration not stated),inactive: -1.34%
21,O=[N+]([O-])c1cc(-c2nc(-c3ccccc3)no2)ccc1N1CCN(c2ccccc2)CC1,inactive: 2.7%
22,Cc1ccc(CNC(=O)C2CCN(c3nc4ccccc4n(C)c3=O)CC2)cc1,inactive: -1.08%
23,CCOC(=O)CSc1nc2c(sc3ccccc32)c(=O)n1CCc1ccccc1,inactive: 13.6%
24,Cn1cc(S(=O)(=O)N2CCCCCC2)cc1C(=O)N1CCN(c2cccc(Cl)c2)CC1,inactive: 8.15%
25,Cc1cccc(C)c1NC(=O)Cn1c(=O)n(CC2CCC(C(=O)NCCc3ccccc3)CC2)c(=O)c2ccccc21 (configuration not stated),inactive: 2.8%

row,Compound,"activity change, negative = cytotoxicity"
1,CCOC(=O)C1CCN(C(=O)C2CCN(C3=NS(=O)(=O)C(c4ccc(C)cc4)=C3CC)CC2)CC1,inactive: 8.49%
2,Cc1ccc(NC(=O)Cn2nnc(-c3nc(-c4ccncc4)no3)c2N)cc1,inactive: -0.651%
3,CCCOc1ccc(CNC(=O)C(CC)n2nc(C)c3sc4ccccc4c3c2=O)cc1 (configuration not stated),inactive: 7.02%
4,CCOc1ccc2nc(C)cc(Nc3ccccc3OCC)c2c1,inactive: -13.3%
5,Cc1ccc(C(=O)O)cc1Nc1nc2ccccc2n2nnnc12,inactive: 0.631%
6,COc1ccc(-c2cc3ccc(O)c(CN4CCOCC4)c3oc2=O)cc1,inactive: 4.02%
7,CC(=O)N1CCc2cc(Br)cc(S(=O)(=O)N3CCC(C(=O)N(C)c4cc(C)ccc4C)CC3)c21,inactive: 4.74%
8,COc1cc(NC(=O)c2ccccc2)ccc1NC(=O)c1cc2ccccc2o1,inactive: 19.3%
9,Cc1cccc(NC(=O)CSc2nc(-c3ccco3)nc3cc(=O)[nH]n23)c1,inactive: -23.9%
10,CCn1cc(C(=O)N2CCN(c3ccccc3F)CC2)c(=O)c2cc(S(=O)(=O)N(C)C3CCCCC3)ccc21,inactive: -7.9%
11,CCOC(=O)c1c(C)oc2nc(C)nc(NCc3ccc(Cl)cc3)c12,inactive: 1.4%
12,O=C(CCn1c(=O)c2ccccc2n(Cc2ccc(F)cc2Cl)c1=O)NCc1ccc2c(c1)OCO2,inactive: 1.64%
13,CCc1ccc(NC(=O)C2CCN(S(=O)(=O)c3ccc4[nH]c5c(c4c3)CCCCC5)CC2)cc1,inactive: -0.972%
14,COc1ccc(-c2ccc3c(N)c(C(=O)NCc4ccc(Cl)cc4)sc3n2)cc1,inactive: 3.85%
15,COC(=O)c1c(SC)nc2ccccc2c1OCc1ccccc1C,inactive: 6.59%
16,O=C(CSc1nc2c(oc3ccccc32)c(=O)n1-c1ccccc1F)Nc1ccccc1,inactive: -1.91%
17,CCOC(=O)c1c(S(=O)(=O)N2CCCC(C(=O)N3CCN(c4cccc(C)c4C)CC3)C2)c(C)n(C)c1C (configuration not stated),inactive: -20.6%
18,O=C(CN1C(=O)COc2ccc(S(=O)(=O)N3CCOCC3)cc21)NCc1ccc(F)cc1,inactive: 17.3%
19,CCOc1cc(S(=O)(=O)n2ccnc2C(C)C)ccc1Cl,inactive: -2.91%
20,CC(C)CN1CCc2nc(N3CCN(C)CC3)ncc2C1,inactive: -0.311%
21,Cn1c(=O)cc(SCC(=O)N2CCN(c3ccc(F)cc3)CC2)c2ccc(Cl)cc21,inactive: 6.17%
22,Cc1ccc(Nc2c3c(nc4nncn24)CCC3)cc1C,inactive: -0.635%
23,CCCCC(CC)CNC(=O)C1CCN(S(=O)(=O)c2cccc3nsnc23)CC1 (configuration not stated),inactive: -1.95%
24,Cc1ccccc1NC(=O)CCn1cnc2onc(-c3ccc(F)cc3)c2c1=O,inactive: -26%
25,CCC(C)(C)C1CCc2c(sc(NC(=O)C3c4ccccc4Oc4ccccc43)c2C(N)=O)C1 (configuration not stated),inactive: 15.5%

row,Compound,"activity change, negative = cytotoxicity"
1,O=S(=O)(c1ccccc1)c1nc(-c2cccs2)oc1SCc1ccccc1F,inactive: -0.231%
2,Cc1ccc(NS(=O)(=O)c2c(C(=O)N3CCC(C)CC3)c(C)n(C)c2C)cc1Cl,inactive: -11.2%
3,N#Cc1nc(-c2ccc(COc3ccc(Cl)cc3)o2)oc1N1CCN(c2ccccc2)CC1,inactive: 2.73%
4,CCOc1ccc(NC(=O)CCn2cnc3onc(-c4ccc(F)cc4)c3c2=O)cc1,inactive: 10.6%
5,O=C(CSc1nccn1-c1ccc(F)cc1)Nc1ccc(OC(F)(F)F)cc1,inactive: -9.66%
6,CCOC(=O)c1c(-c2ccc(Br)cc2)csc1NC(=O)c1ccccc1F,inactive: -5.05%
7,CCN(CC)C(=O)Cn1c(=O)n(Cc2ccc(C(=O)NCc3ccccc3Cl)cc2)c(=O)c2ccccc21,inactive: 12.6%
8,Cc1ccc2c(C)c(C(=O)N(Cc3ccc(Cl)cc3)C3CCS(=O)(=O)C3)oc2c1 (configuration not stated),inactive: -0.166%
9,O=C1CN(C(=O)c2ccccc2C(F)(F)F)C(c2ccccc2)c2cc(F)ccc2N1 (configuration not stated),inactive: -9.35%
10,O=C1[C@@H]2CSC(c3ccc(C(F)(F)F)cc3)N2C(=O)N1c1ccccc1 (some centres not stated),inactive: 0.425%
11,CCCNc1c(NC(=O)c2ccc(OCCC)cc2)c(=O)oc2ccccc12,inactive: -0.316%
12,CCOC(=O)c1c(NC(=O)c2nc(SC(C)C)ncc2Cl)sc2c1CCCC2,inactive: 17.4%
13,Cn1c(SCc2ccc(C(F)(F)F)cc2)nc2c([nH]c3ccccc32)c1=O,inactive: 0.658%
14,O=c1cc(N2CCN(c3ccc(F)cc3)CC2)[nH]c(=O)n1-c1ccc(Br)cc1,inactive: -3.82%
15,Cc1ccccc1Cn1c(=O)n(Cc2ccc(Cl)cc2)c(=O)c2cccnc21,inactive: 3.11%
16,COc1ccc(OC)c(NC(=O)CSC2=Nc3ccccc3C3=NC(CC(=O)NCc4ccc5c(c4)OCO5)C(=O)N23)c1 (configuration not stated),inactive: -6.87%
17,COc1cc(Cl)c(C)cc1NC(=O)c1sc2nc3n(c(=O)c2c1C)CCCCC3,inactive: 2.91%
18,CC(=O)c1c(C)oc2c(Cl)cc(NS(=O)(=O)c3ccc(Cl)cc3)cc12,inactive: 25.9%
19,CN(C)c1ccc(C(CNS(=O)(=O)c2ccccc2)N2CCc3ccccc32)cc1 (configuration not stated),inactive: -2.03%
20,CCn1cc(S(=O)(=O)c2cc(C)cc(C)c2)c(=O)c2cc(F)c(N3CCCC3)cc21,inactive: 0.998%
21,COc1ccc(N2CCN(S(=O)(=O)CCNC(=O)Cc3ccc(Cl)cc3)CC2)cc1,inactive: 2.38%
22,CCOc1ccc(CCNC(=O)c2nnc(Cc3cc(OC)c(OC)c(OC)c3)o2)cc1OCC,inactive: -4.34%
